# Laboratory results as given in PubChem BioAssay (NCATS).
# This list was built around the results that the source calls inconclusive (neither active nor inactive); the mix of calls is not that of the screen. Activity calls are given as the source filed them. Calls follow the shape of the dose curve; as a rule, active = well fitted curve in either direction with a large enough effect (not every such curve was filed as active); inconclusive = small, poorly fitted or top-dose-only effect, or another doubt; inactive = flat fitted curve, though single readings scatter.
# Experiment: NFAT Signaling Pathway (AID 444);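 also: carbachol stimulus at about its EC50 of 1 µM final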
# Settings: Jurkat NFAT-bla M1, carbachol, beta-lactamase ratio, 5 h; at 17.2 µM (top of the series) unless noted
# How it was run: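 Read-out: CCF4 FRET ratio (460 nm/530 nm) after 1 h RT dye loading, used for %activity and AC50 from titration series. Cells: Jurkat NFAT-β-lactamase/M1 line, treated with compound plus 1 uM carbachol for 5 h, 37 °C.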
# % is scaled to controls: 0 for no effect and ±100 for the full control effect.
row,SMILES,"activity change, negative = inhibition"
1,Cc1c(C(=O)O)sc(=S)n1-c1ccccc1,inactive: 2.74%
2,Cc1c(NS(=O)(=O)c2cccc3nsnc23)c(=O)n(-c2ccccc2)n1C,inactive: -7.17%
3,O=C(O)CC(NCc1ccco1)C(=O)OCC1CCCO1 (centres undefined),inconclusive: 5.08% [inhibitor]
4,CC(C)OC(=O)c1nn2c(C(F)(F)F)cc(-c3ccc(Br)o3)nc2c1Br,inconclusive: -32.8% [inhibitor]
